# Laboratory results taken from PubChem BioAssay AID686979 (National Center for Advancing Translational Sciences (NCATS), 2013).
# The campaign covered roughly 420,000 compounds. About 50,000 (12%) were called active. The inconclusive results got no clear call from the source; some entries with a clear call stand among them for comparison. Calls follow the shape of the dose curve; as a rule, active = well fitted inhibition curve with a large enough effect; inconclusive = small, poorly fitted or top-dose-only effect; inactive = flat fitted curve, though single readings scatter. Potencies of inconclusive entries are left out as doubtful fits.
# Assay: qHTS for Inhibitors of human tyrosyl-DNA phosphodiesterase 1 (TDP1): qHTS in cells in presence of CPT; also: nearly all actives have a fitted effect of over 55% in size
# Conditions: chicken DT40 Tdp1-/-;hTDP1 cells + 20 nM CPT, ATP luminescence, 48 h; activity change, negative = growth inhibition: at 46.2 µM (top of the series) unless noted
# In short: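 Chicken DT40 Tdp1-/- cells stably complemented with human TDP1 were seeded at 400 cells/well in medium containing 20 nM camptothecin, exposed to pin-transferred compounds, and grown at 37 °C for at least 48 hr. Viability was read as ATP luminescence.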
# % is scaled to controls: 0 for no effect and ±100 for the full control effect; potency is read from the fitted curve at half-maximal effect; tags tell the direction and shape of the fitted curve.
SMILES,Potency,"activity change, negative = growth inhibition"
COc1ccc(-c2cc3c(=O)n(CC(=O)NCCCN4CCC(N5CCCCC5)CC4)ncn3n2)cc1,active: 14.6 µM,–
O=C(CCC(=O)Nc1ccccc1)NNC(=O)C(c1ccccc1)c1ccccc1,inactive,–
O=C(O)c1ccc(CNC(=O)c2ccc(S(=O)(=O)N3CCCC3)cc2)cc1,inactive,–
COC(=O)c1cc(=O)n(-c2ccc(C(F)(F)F)cc2)[nH]1,inactive,–
CCCc1ccccc1OCCNS(=O)(=O)c1cc2c(cc1C)OCC(=O)N2,active: 14.6 µM,–
Cc1nn(-c2ccccc2)c(N2CCCC2)c1/C=N/NC(=S)Nc1cc(C(F)(F)F)ccc1Cl,"inconclusive [inhibitor, single point]",–
Cc1[nH]c2ccccc2c1C(C[N+](=O)[O-])c1cccc(O)c1 (centres undefined),"inconclusive [inhibitor, single point]",–
COc1ccc(CN2CCC(CNS(=O)(=O)c3cccc(C(F)(F)F)c3)CC2)cc1,"inconclusive [inhibitor, partial curve]",–
CCc1ccc(NC(=O)CSc2nc(=O)n(Cc3ccco3)c3c2CCC3)cc1,"inconclusive [inhibitor, single point]",–
COc1cccc(C2=CC(c3ccc(N(C)C)cc3)n3nnnc3N2)c1 (centres undefined),active: 20.6 µM,–
Cc1ccc(NC(=O)/C=C/c2ccc(S(=O)(=O)N3CCOCC3)cc2)cc1S(=O)(=O)N(C)C,"inconclusive [inhibitor, single point]",–
Cc1nc2c3ccccc3nc(NNC(=O)CCC(=O)NCCN3CCN(c4ccccc4F)CC3)n2n1,"inconclusive [inhibitor, single point]",–
Cc1ccc(S(=O)(=O)NCc2ccc(C(=O)N3CCN(c4ccc([N+](=O)[O-])cc4)CC3)cc2)cc1,active: 16.4 µM,–
N/C(=N\OC(=O)c1cccs1)c1ccccc1,"inconclusive [inhibitor, single point]",–
O=c1c(Cl)c(Nc2cccc(Cl)c2)cnn1-c1nc2ccccc2s1,inactive,–
Cc1ccc(N(Cc2ccccc2)C(=O)c2ccc(S(=O)(=O)N3CCOCC3)cc2)cc1,"inconclusive [inhibitor, single point]",–
CC(NC(=O)c1cccs1)c1ccc(Br)cc1 (centres undefined),inactive,–
Cc1cccc(OCC(=O)Nc2cc(C)ccc2O)c1,"inconclusive [inhibitor, partial curve]",–
Fc1ccc(F)c(C2=NNC(=NCC3CCCO3)SC2)c1 (centres undefined),inactive,–
COc1cccc(-c2nc(NCc3ccc(OC)cc3OC)c3ccccc3n2)c1,"inconclusive [inhibitor, single point]",–
O=c1[nH]c(SCc2ccc(Br)cc2)nc2c1CCCC2,"inconclusive [inhibitor, single point]",–
O=C(c1ccc2c(c1)C(=O)N(Cc1ccncc1)C2=O)N1CCN(S(=O)(=O)c2ccc(OC(F)(F)F)cc2)CC1,inactive,–
NC1=NC[C@H](c2ccccc2)N1CC1CCCCC1,active: 13 µM,–
COC(=O)c1ccc(OC)c(CSc2nnc(-c3ccc(C(C)(C)C)cc3)o2)c1,active: 16.4 µM,–
COc1ccccc1-c1cncnc1NCc1cnc(C)cn1,"inconclusive [inhibitor, full curve, poor fit]",–

SMILES,Potency,"activity change, negative = growth inhibition"
CN(CCc1ccccc1)C(=O)c1ccc(NC(=O)Cc2ccc(NC(=O)C3CCCN(C(=O)C4CCCCC4)C3)cc2)cc1 (centres undefined),"inconclusive [inhibitor, single point]",–
CCOC(=O)N1CCN(C(=O)C2CCCN(S(=O)(=O)c3ccccc3)C2)CC1 (centres undefined),inactive,–
CC(NC(=O)Cn1c(-c2cccs2)cc2cc(F)ccc21)c1ccccc1 (centres undefined),"inconclusive [inhibitor, partial curve]",–
O=C(CSc1nc2ccccc2c(=O)[nH]1)Nc1ccc(N2CCOCC2)cc1,active: 16.4 µM,–
CC1=C(C(=O)OCc2ccc3c(c2)OCO3)C(c2ccc(O)c([N+](=O)[O-])c2)NC(=O)N1 (centres undefined),inactive,–
COC(=O)c1ccc(OCCOCCOc2cccc3ccc(C)nc23)cc1,"inconclusive [inhibitor, single point]",–
CCC(C)NC(=O)c1c(-c2ccccc2)c(-c2ccccc2)nn(C)c1=O (centres undefined),inactive,–
O=C(OCC(=O)N1CCCC1)c1cc(=O)c2ccccc2o1,inactive,–
Cc1ccc(CCNC(=O)CS(=O)Cc2nc(-c3ccccc3F)oc2C)cc1 (centres undefined),"inconclusive [inhibitor, single point]",–
COc1ccc(-c2cc(C(=O)Oc3ccc(C)c(C)c3)c3ccccc3n2)cc1,"inconclusive [inhibitor, single point]",–
O=C(NC1CCCCC1)c1ccc(-n2cncn2)c([N+](=O)[O-])c1,inactive,–
O=C(Cn1c(=O)n(Cc2ccc3c(c2)OCO3)c(=O)c2ccc(C(=O)NC3CCCCC3)cc21)Nc1ccccc1F,"inconclusive [inhibitor, partial curve]",–
OCCCc1cn(Cc2ccccc2)c2ccccc12,inactive,–
O=C(N/N=C/c1ccccc1O)C1CC(=O)N(c2ccc(Cl)cc2)C1 (centres undefined),active: 7.31 µM,–
C[C@@H]1CN([C@@H](C)CO)C(=O)c2cc(Br)cnc2O[C@H]1CN(C)S(=O)(=O)c1cccs1,"inconclusive [inhibitor, single point]",–
CC12CC3(C)CC(C)(C1)CC(C(=O)NCc1cccnc1)(C2)C3,inactive,–
CCOC(=O)c1cc(-c2ccccc2)n(CCCC(=O)Nc2ccc(C)cc2C)c1C,–,inconclusive: -36.4% [inhibitor]
O=C1CCCc2[nH]c3cccc(/C(=C/c4ccccc4)c4ccccc4)c3c21,"inconclusive [inhibitor, single point]",–
CCN(Cc1ccccc1)S(=O)(=O)c1cc(C(=O)NC(C)C2CC3CCC2C3)ccc1OC (centres undefined),active: 16.4 µM,–
Cc1cc(NC2CCCC2)n2ncc(-c3ccccc3)c2n1,"inconclusive [inhibitor, single point]",–
COc1cc(NCc2ccccc2)c2ncn(Cc3ccccc3)c2c1,"inconclusive [inhibitor, partial curve]",–
COc1ccc(C2CCc3cc4c(cc3C2=NO)OCO4)cc1OC (centres undefined),"inconclusive [inhibitor, single point]",–
O=C(NNC(=O)C1CC(c2cccs2)=NO1)NC1CCCCC1 (centres undefined),inactive,–
Cc1ccc(N2C(=O)CC(Sc3ccccc3C(=O)O)C2=O)cc1 (centres undefined),active: 7.31 µM,–
Cc1cccc(-n2c3nc(=O)n(C)c(=O)c-3cc3ccc(Cl)cc32)c1C,inactive,–

SMILES,Potency,"activity change, negative = growth inhibition"
O=C(Nc1ccc(Cl)c(S(=O)(=O)N2CCCCC2)c1)C1=COCCO1,"inconclusive [inhibitor, single point]",–
CC1(C)C2CCC1(CS(=O)(=O)Nc1cccc(S(N)(=O)=O)c1)C(=O)C2 (centres undefined),inactive,–
Cc1noc2ncnc(NCc3cccc(Cl)c3)c12,active: 16.4 µM,–
Cc1oc(-c2ccc(Cl)cc2)nc1CSCC(=O)NCCCN1CCOCC1,"inconclusive [inhibitor, partial curve]",–
C/C(=N\O)c1ccc(Cl)cc1Cl,inactive,–
COc1ccc(OC)c(NC(=O)CN2C(=O)COc3ccc(C)cc32)c1,"inconclusive [inhibitor, single point]",–
CC(C(=O)OCC(=O)c1cccc([N+](=O)[O-])c1)N1C(=O)C2C3CCC(C3)C2C1=O (centres undefined),"inconclusive [inhibitor, single point]",–
CCc1c(C)nc2ncnn2c1N1CCC(C(=O)Nc2ccccc2)CC1,"inconclusive [inhibitor, single point]",–
COc1cccc(C(O)c2nc(-c3cccc(CO)c3)cs2)c1 (centres undefined),"inconclusive [inhibitor, partial curve, poor fit]",–
Cn1c(C(=O)N2CCCC(C(=O)N3CCN(C(=O)c4ccco4)CC3)C2)cc2sccc21 (centres undefined),active: 14.6 µM,–
CCOC(=O)c1ccc(CC(=O)c2ccc(O)cc2O)o1,"inconclusive [inhibitor, single point]",–
Cc1ccc(NC(=O)CNc2ccc(OC(C)C)cc2)cc1,"inconclusive [inhibitor, single point]",–
CCOC(=O)c1ccc(S(=O)(=O)Nc2ccc(N3CCOCC3)cc2)cc1,active: 20.6 µM,–
c1ccc(-c2ccc(Oc3cc(N4CCOCC4)nc(-c4ccccc4)n3)cc2)cc1,"inconclusive [inhibitor, partial curve]",–
Cc1nnc(SCC(=O)Nc2ccccc2)c2ccccc12,inactive,–
OCC[N+]1(CCc2ccccc2)CCOCC1,inactive,–
CCN(CC)CCn1c2c(c(SCC(=O)Nc3cccc(C(C)=O)c3)nc1=O)CCCC2,"inconclusive [inhibitor, single point]",–
CCc1ccccc1NC(=O)N1CCC(NC(=O)C(Cc2ccccc2)NC(C)=O)CC1 (centres undefined),inactive,–
CC(=O)N1CCN(S(=O)(=O)c2cccc(C(=O)NC3CCC(C)CC3)c2)CC1 (centres undefined),inactive,–
Fc1ccc(/C=N/Nc2nc(-c3cccnc3)nc3ccccc23)cc1,active: 20.6 µM,–
CC(C)(C)C(=O)N1CCN(c2nc3c(F)cccc3s2)CC1,active: 16.4 µM,–
Cc1ccc(-c2nn(-c3ccccc3)cc2CC(=S)N2CCOCC2)cc1,inactive,–
CCC(=O)N1CCc2cc(S(=O)(=O)NC(Cc3ccccc3)C(=O)Nc3cccc(OC)c3)ccc21 (centres undefined),"inconclusive [inhibitor, single point]",–
CCOc1ccc(NC(=O)c2[nH]c(C)c(C(C)=O)c2C)cc1,"inconclusive [inhibitor, single point]",–
